Some of the results follow.
How the values were obtained:
[1] = tested on: HSkMC (human skeletal muscle cells); assay: cytotoxicity call (relative viability < 0.9); settings: 10 µM
[2] = tested on: HepG2; assay: cytotoxicity call (relative viability < 0.9); settings: 10 µM
[3] = tested on: S. aureus RN4220; assay: growth inhibition call (relative growth <= 0.2); settings: 50 µM

Row | Structure (SMILES) | cytotoxicity call [1] | cytotoxicity call [2] | growth inhibition call [3]
1 | Cc1noc(C)c1NC(=O)Nc1ccc2c(c1)CC(=O)N([C@@H](C)CO)C[C@H](C)[C@@H](CN(C)C(=O)Nc1ccc(C(F)(F)F)cc1)O2 | inactive | inactive | inactive
2 | CCS(=O)(=O)N1CC[C@]2(CC1)CN([C@H](CO)c1[nH]c3cc(ccc3c12)OC)S(=O)(=O)c1cn(cn1)C | inactive | inactive | inactive
3 | CC(C)CC#Cc1ccc2c(c1)O[C@H](CN(C)C(=O)c1ccncc1)[C@@H](C)CN([C@H](C)CO)S2(=O)=O | inactive | inactive | inactive
4 | CC1=C(C(=O)OCCN(Cc2ccccc2)c2ccccc2)[C@H](c2cccc([N+](=O)[O-])c2)C(P2(=O)OCC(C)(C)CO2)=C(C)N1 | inactive | inactive | inactive
5 | C[C@H]1CCCCO[C@H](CN(C)C(=O)NC2CCCCC2)[C@@H](C)CN([C@@H](C)CO)C(=O)c2cc(NC(=O)Nc3ccccc3)ccc2O1 | inactive | active | inactive
6 | C[C@H]1CN([C@@H](C)CO)C(=O)CCCn2cc(nn2)CO[C@H]1CN(C)C(=O)Nc1ccc(C(F)(F)F)cc1 | inactive | inactive | inactive
7 | Cc1noc(C)c1NC(=O)N(C)C[C@H]1Oc2c(NS(C)(=O)=O)cccc2C(=O)N([C@H](C)CO)C[C@@H]1C | inactive | inactive | inactive
8 | Cc1ccc(OC(=O)N(C)C[C@@H]2OCc3ccccc3-c3ccccc3C(=O)N([C@@H](C)CO)C[C@H]2C)cc1 | inactive | inactive | inactive
9 | C[C@@H]1CN([C@H](C)CO)C(=O)c2cccc(NC(=O)C3CCOCC3)c2O[C@H]1CN(C)Cc1ccccc1 | inactive | inactive | inactive
10 | COc1cc(C(=S)N2CCOCC2)ccc1O | inactive | inactive | inactive
11 | C[C@@H]1CCCCO[C@H](CN(C)Cc2ccc(C(F)(F)F)cc2)[C@H](C)CN([C@H](C)CO)C(=O)c2cc(NC(=O)Cc3ccccc3)ccc2O1 | inactive | active | inactive
12 | COc1ccc(S(=O)(=O)N[C@H]2C=C[C@@H](CC(=O)N3CCN(c4ccccc4)CC3)O[C@@H]2CO)cc1 | inactive | inactive | inactive
13 | CNC[C@H]1OCCCC[C@@H](C)Oc2ccc(NC(=O)Nc3ccc(C(F)(F)F)cc3)cc2C(=O)N([C@H](C)CO)C[C@H]1C | inactive | inactive | active
14 | COC(=O)C1=C(C#N)NC(C)=C(C(=O)OC(C)C)C1c1cccc([N+](=O)[O-])c1 (stereo unspecified) | inactive | active | inactive
15 | C[C@H]1CN([C@@H](C)CO)C(=O)c2c(c3ccccc3n2C)-c2ccccc2CO[C@H]1CN(C)Cc1ccc(Cl)c(Cl)c1 | inactive | inactive | inactive
16 | C[C@@H]1CN([C@H](C)CO)C(=O)c2cc(NC(=O)Nc3ccc4c(c3)OCO4)ccc2O[C@@H](C)CCCCO[C@H]1CN(C)S(=O)(=O)c1ccc(F)cc1 | inactive | inactive | inactive
17 | COc1ccc(NC(=O)N(C)C[C@@H]2OCCCC[C@@H](C)Oc3ccc(NS(=O)(=O)c4c(C)noc4C)cc3C(=O)N([C@H](C)CO)C[C@@H]2C)cc1 | inactive | inactive | inactive
18 | C[C@H](CO)N1C[C@H](C)[C@H](CN(C)CC2CCCCC2)Oc2ccc(NS(=O)(=O)c3cn(C)cn3)cc2CC1=O | inactive | inactive | inactive
19 | C[C@@H]1CN([C@H](C)CO)C(=O)Cc2cc(NC(=O)C3CCCCC3)ccc2O[C@H]1CN(C)Cc1ccc(Oc2ccccc2)cc1 | inactive | inactive | inactive
20 | COc1ccc(NC(=O)Nc2ccc3c(c2)C(=O)N([C@@H](C)CO)C[C@@H](C)[C@@H](CN(C)C(=O)Nc2ccccc2)OCCCC[C@H](C)O3)cc1 | inactive | inactive | inactive
21 | C[C@@H]1CCCCO[C@H](CN(C)Cc2ccc(C(F)(F)F)cc2)[C@H](C)CN([C@@H](C)CO)C(=O)c2cc(NC(=O)c3ccccc3)ccc2O1 | inactive | active | inactive
22 | Cn1nnc2c(C(N)=O)ncn2c1=O | inactive | inactive | inactive
23 | CC(CCC(=O)[O-])C1CCC2C3C(=O)CC4CC(=O)CCC4(C)C3CC(=O)C12C.[Na+] (stereo unspecified) | inactive | inactive | inactive
24 | C[C@H](CO)N1C[C@H](C)[C@@H](CN(C)C(=O)Nc2ccc(F)cc2)Oc2c(NS(C)(=O)=O)cccc2C1=O | inactive | inactive | inactive
25 | C[C@H](CO)N1C[C@H](C)[C@@H](CN(C)S(=O)(=O)c2cccs2)Oc2ccc(NC(=O)Cc3ccccc3)cc2C1=O | inactive | inactive | inactive
26 | C[C@@H]1CN([C@H](C)CO)C(=O)c2cccc(NS(=O)(=O)c3ccc(F)cc3)c2O[C@@H]1CN(C)Cc1ccc(-c2ccccc2)cc1 | inactive | inactive | inactive

Row | Structure (SMILES) | cytotoxicity call [1] | cytotoxicity call [2] | growth inhibition call [3]
27 | C[C@H]1CN([C@@H](C)CO)S(=O)(=O)c2ccc(C#CC3CC3)cc2O[C@H]1CN(C)C(=O)c1cccc(F)c1 | inactive | inactive | inactive
28 | C[C@@H]1CN([C@H](C)CO)C(=O)c2cccc(NS(=O)(=O)c3cn(C)cn3)c2O[C@@H]1CN(C)Cc1ccc(C(=O)O)cc1 | inactive | inactive | inactive
29 | C[C@@H]1CN([C@H](C)CO)C(=O)Cc2cc(NC(=O)C3CCCCC3)ccc2O[C@H]1CN(C)S(=O)(=O)c1cn(C)cn1 | inactive | inactive | inactive
30 | C[C@@H]1CN([C@@H](C)CO)C(=O)c2cc(NC(=O)Nc3ccc(C(F)(F)F)cc3)ccc2O[C@@H](C)CCCCO[C@@H]1CN(C)S(=O)(=O)c1ccc(Cl)cc1 | inactive | inactive | inactive
31 | Cc1noc(C)c1S(=O)(=O)N(C)C[C@@H]1OCCCC[C@H](C)Oc2ccc(NC(=O)Nc3cccc4ccccc34)cc2C(=O)N([C@H](C)CO)C[C@H]1C | inactive | inactive | inactive
32 | C[C@@H]1CCn2cc(nn2)COC[C@@H](Cc2ccccc2)NC(=O)[C@H](C)CCn2cc(nn2)COC[C@@H](Cc2ccccc2)NC1=O | inactive | inactive | inactive
33 | COC(=O)[C@@H]1[C@@H](CO)[C@@H]2Cn3c(ccc(-c4ccccc4)c3=O)[C@@H]2N1S(C)(=O)=O | inactive | inactive | inactive
34 | COc1ccc(NC(=O)Nc2ccc3c(c2)C(=O)N([C@@H](C)CO)C[C@@H](C)[C@H](CN(C)C(=O)C2CCCCC2)OCCCC[C@H](C)O3)cc1 | inactive | inactive | inactive
35 | CC(=O)NCCCC[C@@H]1NC(=O)[C@@H]2C[C@H](C(=O)NCCCC[N+](C)(C)C)[C@H](c3cccc(OCCO)c3)N2C1=O | inactive | active | inactive
36 | C[C@H](CO)N1C[C@H](C)[C@@H](CN(C)C(=O)Nc2cccc3ccccc23)Oc2c(NC(=O)Nc3ccc4c(c3)OCO4)cccc2C1=O | inactive | inactive | inactive
37 | CCc1nn(CCCN2CCN(c3cccc(Cl)c3)CC2)c(=O)n1CCOc1ccccc1 | inactive | active | inactive
38 | C[C@H]1CN([C@@H](C)CO)S(=O)(=O)c2ccc(C#CC(C)(C)O)cc2O[C@H]1CN(C)C(=O)CN(C)C | inactive | inactive | inactive
39 | C[C@@H]1CN([C@@H](C)CO)C(=O)c2cc(NC(=O)Cn3cnnn3)ccc2O[C@@H]1CN(C)C(=O)NC1CCCCC1 | inactive | inactive | inactive
40 | COc1ccc(S(=O)(=O)N(C)C[C@@H]2OCCCC[C@@H](C)Oc3ccc(NC(=O)Nc4c(C)noc4C)cc3C(=O)N([C@H](C)CO)C[C@H]2C)cc1 | inactive | inactive | inactive
41 | C[C@H](CO)N1C[C@H](C)[C@@H](CN(C)S(=O)(=O)c2cn(C)cn2)OCc2ccccc2-c2c(n(C)c3ccccc23)C1=O | inactive | inactive | inactive
42 | CC(C)NC(=O)N(C)C[C@@H]1Oc2ccc(NC(=O)CCN3CCOCC3)cc2CC(=O)N([C@@H](C)CO)C[C@@H]1C | inactive | inactive | inactive
43 | C[C@H](CO)N1C[C@H](C)[C@@H](CN(C)Cc2ccncc2)Oc2ccc(NC(=O)CCCN(C)C)cc2C1=O | inactive | inactive | inactive
44 | C[C@@H]1CN([C@H](C)CO)C(=O)c2cc(NC(=O)Nc3cccc4ccccc34)ccc2O[C@@H]1CN(C)Cc1ccc(-c2ccccc2)cc1 | inactive | active | inactive
45 | C[C@@H]1CN([C@H](C)CO)C(=O)c2cc(NC(=O)CCCCCC(=O)Nc3ccccc3N)ccc2O[C@@H]1CN(C)C(=O)Nc1ccccc1 | inactive | inactive | inactive
46 | C[C@@H]1CN([C@@H](C)CO)C(=O)c2cc(NS(=O)(=O)c3ccccc3)ccc2O[C@@H](C)CCCCO[C@H]1CN(C)C(=O)Nc1cccc2ccccc12 | inactive | active | inactive
47 | C[C@H](CO)N1C[C@H](C)[C@@H](CN(C)S(=O)(=O)c2ccc(Cl)cc2)Oc2ccc(N(C)C)cc2CC1=O | inactive | inactive | inactive
48 | Cc1noc(C)c1NC(=O)N(C)C[C@@H]1Oc2ccc(NC(=O)Cn3cnnn3)cc2C(=O)N([C@H](C)CO)C[C@H]1C | inactive | inactive | inactive
49 | O=C1OCCC/C=C\[C@H]2O[C@@]34C=CCN(Cn5nnc6ccccc65)C(=O)[C@H]3N(CCO)C(=O)[C@@H]4[C@@H]12 | inactive | inactive | inactive
50 | Cc1noc(C)c1S(=O)(=O)Nc1ccc2c(c1)C(=O)N([C@@H](C)CO)C[C@H](C)[C@@H](CN(C)C)OCCCC[C@H](C)O2 | inactive | inactive | inactive
51 | CC(C)NC(=O)N(C)C[C@H]1Oc2cc(C#Cc3cccc(F)c3)ccc2S(=O)(=O)N([C@H](C)CO)C[C@H]1C | inactive | inactive | inactive
52 | Cc1cccc(S(=O)(=O)N2C[C@@H](O)COC[C@@H]3O[C@H](CC(=O)NCc4ccc5c(c4)OCO5)CC[C@H]32)c1 | inactive | inactive | inactive

— the antibiotic and cytotoxicity screens of Wong et al. (2023)
